From PubChem BioAssay AID1460 (National Center for Advancing Translational Sciences (NCATS), 2008)
The campaign covered roughly 270,000 compounds. About 5,800 (2.1%) were called active. The inconclusive results got no clear call from the source; some entries with a clear call stand among them for comparison. Calls come from the whole dose curve; as a rule, active = well fitted inhibition curve with a large enough effect; inconclusive = small, poorly fitted or top-dose-only effect; inactive = flat fitted curve, though single readings scatter. A potency beside an inconclusive call is a rough fit, not a confirmed value.

biological target: Microtubule-associated protein tau (Homo sapiens) (UniProt P10636); assay: qHTS for Inhibitors of Tau Fibril Formation, Thioflavin T Binding; details: recombinant tau K18 P301L (four-repeat tau fragment), heparin-induced fibrillization, ThT fluorescence; series mostly up to 57.4 µM; activity, negative = inhibition: at the top concentration; note: nearly all actives have a fitted effect of over 55% in size
Chain of UniProt P10636 (P10636 whole entry, looked up, the tested form may be a part): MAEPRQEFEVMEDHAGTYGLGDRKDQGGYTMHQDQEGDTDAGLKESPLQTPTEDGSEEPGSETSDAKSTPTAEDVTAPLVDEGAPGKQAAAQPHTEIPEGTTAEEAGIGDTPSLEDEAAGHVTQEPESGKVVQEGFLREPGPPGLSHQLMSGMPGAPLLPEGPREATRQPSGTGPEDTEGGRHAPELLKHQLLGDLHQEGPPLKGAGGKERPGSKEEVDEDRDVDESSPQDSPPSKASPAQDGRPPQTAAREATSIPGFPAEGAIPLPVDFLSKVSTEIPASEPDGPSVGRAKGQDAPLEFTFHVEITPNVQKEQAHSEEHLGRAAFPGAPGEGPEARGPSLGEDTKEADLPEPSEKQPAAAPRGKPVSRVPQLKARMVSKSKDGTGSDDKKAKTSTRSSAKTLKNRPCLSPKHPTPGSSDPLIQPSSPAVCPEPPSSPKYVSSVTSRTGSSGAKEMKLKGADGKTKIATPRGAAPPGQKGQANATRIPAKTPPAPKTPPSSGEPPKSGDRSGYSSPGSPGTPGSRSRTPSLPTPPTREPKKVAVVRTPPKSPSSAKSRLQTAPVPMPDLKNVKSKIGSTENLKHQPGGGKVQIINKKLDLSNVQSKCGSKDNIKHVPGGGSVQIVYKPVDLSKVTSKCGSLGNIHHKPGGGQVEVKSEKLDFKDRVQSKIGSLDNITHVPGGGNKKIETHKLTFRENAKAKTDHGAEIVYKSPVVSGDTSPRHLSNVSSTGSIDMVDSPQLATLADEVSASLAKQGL
Procedure, shortened: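 K18 P301L tau (15 uM + 0.24 uM Alexa 594-tagged), heparin 20 uM, NaOAc pH 7, 6 h 37 C; ThT 30 uM, 1 h RT, ex 450/em 510 nm.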
% is set by controls: 0 for no effect and ±100 for the full control effect; potency is the fitted concentration of half-maximal effect; tags give direction and shape of the fitted curve.

Row | SMILES | Potency | activity, negative = inhibition
1 | Cc1cccc(Nc2c([N+](=O)[O-])cc(C(=O)N3CC(=O)Nc4ccccc43)cc2[N+](=O)[O-])c1 | inconclusive: 12.6 µM [inhibitor, partial curve] | 
2 | C=CCN=C1NN=C(c2cc(C)n(CC=C)c2C)CS1 | inconclusive: 15.8 µM [inhibitor, partial curve] | 
3 | O=C(C[n+]1cc(-c2ccc(Cl)cc2)n2c1CCC2)Nc1nc(-c2ccccc2)cs1 | inconclusive: 15.8 µM [inhibitor, partial curve, poor fit] | 
4 | Cc1ccc(N=C(NOC(=O)c2ccccc2)c2nonc2N)c(C)c1 | inconclusive: 12.6 µM [inhibitor, partial curve] | 
5 | COc1ccc2c(c1)c1nnc(SCC(=O)N3C(C)CCCC3C)nc1n2C (stereo not drawn) | inconclusive: 39.8 µM [inhibitor, single point] | 
6 | CCOC(=O)c1c(CN2CCCCC2)n(C)c2cc(Br)c(O)c(CN(C)C)c12 | inconclusive: 14.1 µM [inhibitor, partial curve] | 
7 | Cc1ccccc1C(=O)OCc1cc(=O)n2nc(-c3cccs3)sc2n1 | inconclusive: 1.12 µM [inhibitor, full curve, poor fit] | 
8 | Nc1nccc(-c2cc(-c3ccc(Cl)cc3Cl)no2)n1 | inconclusive: 20 µM [inhibitor, single point] | 
9 | CCOC(=O)c1sc2nc(N3CCOCC3)c3c(c2c1N)CCC3 | inconclusive: 15.8 µM [inhibitor, partial curve, poor fit] | 
10 | CCCC(=O)Nc1ccc(-c2nc3ncccc3o2)cc1C |  | inactive: -2.99%
11 | Fc1ccc(-c2csc3ncnc(Nc4ccc(N5CCOCC5)cc4)c23)cc1 | inconclusive: 11.2 µM [inhibitor, partial curve, poor fit] | 
12 | CC(C)c1ccc(CNc2ccc(N3CCOCC3)cc2)cc1 | inconclusive: 12.6 µM [inhibitor, partial curve] | 
13 | COc1ccc(C2CC(O)(c3ccccc3)Oc3cc(OC)ccc32)cc1 (stereo not drawn) |  | inactive: -13.4%
14 | CCOC(=O)c1ccccc1NC(=O)N1CCC(CN2CCCCC2)CC1 |  | inactive: -10.3%
15 | Cn1c(-c2ccc(F)cc2)cnc1NCc1ccccc1 |  | inactive: -14.2%
16 | Cc1ccc(NC(=O)O/N=C/c2c(C)nn(C(C)(C)C)c2C)cc1Cl | inconclusive: 22.4 µM [inhibitor, partial curve, poor fit] | 
17 | CCc1ccccc1Nc1cc(C(=O)NC(C)c2ccccc2)c2ccccc2n1 (stereo not drawn) |  | inactive: -4.91%
18 | CCOC(=O)c1ccc(NC(=O)c2ccc(CO)c(C(=O)NC3CCN(C(=O)OCC)CC3)c2)cc1 | inconclusive: 5.62 µM [inhibitor, partial curve] | 
